From paper PMC12136788
Some of the results follow.

T1: UNK ZnF1-3 (human, UniProt Q9C0B0 31-174)
T1 sequence: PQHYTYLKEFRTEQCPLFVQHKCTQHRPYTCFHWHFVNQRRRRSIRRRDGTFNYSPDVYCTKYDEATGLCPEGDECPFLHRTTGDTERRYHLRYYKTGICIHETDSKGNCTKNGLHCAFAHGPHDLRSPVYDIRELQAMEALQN

B1: chr10:33214929:33214930:-_ENSG00000150093_ENST00000302278|hu_hu|hu_hu_hu_mus_True|88_98 (ssRNA)
RNA: GGGAGUUCUACAGUCCGACGAUCAACAAGUUCAUUGAAUACUUCUCCUUUAUUAGUAAGACUAAGCACAUUUUUGUAGCUAAAUGGGCUGGUGCAGUUUUGUUCACUUGUACAAGGAUUUCUUAGCUUUGCUGGGGUUGUGCUCAACAGAGGAUUGAGCAUCA
B2: 70344148_70344643_1976_CDS_ENSG00000184634_ENST00000374080|human|control|control (ssRNA)
RNA: GGGAGUUCUACAGUCCGACGAUCAAUGUCCAUAGAUUCUGAGAGCCCUGGAUCUUCCAGCUUGCUGCUGCUGCUGCCUUCAGCCUCCUUGUGCUCUGGGUCAUCGGCAGGAUCAUCAAAGGGAGAGGGAGGCCGGGGACCAGGCAACAGAGGAUUGAGCAUCA
B3: 22956485_22958199_1973_CDS_ENSG00000068793_ENST00000560848|human|control|control (ssRNA)
RNA: GGGAGUUCUACAGUCCGACGAUCCUGCUGCAGCGUUUCACUGAAAUUUAUCAAGUGAGUGUAGAAGAAUGACUCUCGAUGAAAUUUUUCUAUGUCCAAUAUGGUGGGCCCCUCAAGGCUACUUCUCAAGGUUUUCUUGGAACCCAACAGAGGAUUGAGCAUCA
B4: chr3:179287964:179287965:+_ENSG00000136518_ENST00000429709|hu_hu|hu_hu_hu_mus_True|68_88 (ssRNA)
RNA: GGGAGUUCUACAGUCCGACGAUCCUUGAGUGGUGAGAUGGCCUCCAUAUUCUCCCUGGGCACGCGGAGAGCAUUAGUGUCUAUGUAGUAGGUGGGCCCGCCCUGCUUGCCUUUGUCACCAUCAAUCUCCAUCAUUGUACUUCCCAACAGAGGAUUGAGCAUCA
B5: chr6:41757443:41757444:+_ENSG00000214736_ENST00000398881|hu_mus|hu_hu_hu_mus_False|1_78 (ssRNA)
RNA: GGGAGUUCUACAGUCCGACGAUCGAACCGUGCAGAGGCAACAUCUCAGCCGACACUGUGGACUCAAGGGGCAGUGGGGGGGGGUUCAGGCAAGGAGAGGGAGUCAACUUCAGCUGCCACUCAGGUAGGAUCUUGUGGGGCACACAACAGAGGAUUGAGCAUCA
B6: chr1:225611761:225611762:-_ENSG00000143815_ENST00000272163|hu_mus|hu_hu_hu_mus_True|8_48 (ssRNA)
RNA: GGGAGUUCUACAGUCCGACGAUCCCAGGCCAUCGGCCUCUGACCACUUCACCCUCAACAAACUUCCUACUUGGCAUUUUCUAAAAUUAACCUGCGCGCGCUCCGGCGGGAACUCCAGCCACUCCAGGGAGAAUAGUAGCAGCCCAACAGAGGAUUGAGCAUCA

target: T1, UNK ZnF1-3; assay: nsRBNS (natural sequence RNA bind-n-seq); RBNS binding buffer (assumed for nsRBNS): 25 mM Tris pH 7.5, 150 mM KCl, 3 mM MgCl2, 0.01% Triton X-100, 500 ug/ml BSA, 20 U/ml SUPERase-In, 4 C; UNK is unkempt and MSI1 is Musashi-1; names of the RNAs are library labels; protein concentration not given here; high values mean tight binding

| Binder | binding signal [enrichment R] |
| --- | --- |
| B1 | 0.626 |
| B2 | 0.891 |
| B3 | 0.635 |
| B4 | 0.871 |
| B5 | 2.94 |
| B6 | 1.61 |
